From the supplement of paper PMC9446081
About 220 (0.56%) of roughly 39,000 compounds showed activity. Some of the results follow.
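Further: static incubation at 37 °C against the wild-type strain, values averaged over two biological replicates.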

What follows are compounds tested on Escherichia coli K-12 BW25113 (assay: relative growth (OD600 normalised to plate interquartile mean) (fraction); higher = less growth inhibition, active = 0.2 or less). Conditions: 50 µM; LB; incubation time: overnight (16-24 h).
For `C[C@@H]1CN([C@@H](C)CO)C(=O)c2cc(NC(=O)Nc3cccc4ccccc34)ccc2O[C@@H]1CN(C)CC1CCCCC1`, the relative growth was inactive: 0.959.
In the case of `C[C@@H]1CCCCO[C@@H](CN(C)C(=O)c2ccncc2)[C@@H](C)CN([C@@H](C)CO)C(=O)c2cc(NS(=O)(=O)c3cn(C)cn3)ccc2O1`, the relative growth is reported as inactive: 0.997.
In the case of `Cc1noc(C)c1NC(=O)N(C)C[C@@H]1OCCCC[C@H](C)Oc2ccc(NC(=O)Nc3ccc(C(F)(F)F)cc3)cc2C(=O)N([C@@H](C)CO)C[C@@H]1C`, the relative growth is reported as inactive: 1.06.
With `O=C(O)CCc1nc2ccccc2[nH]1` the relative growth was inactive: 0.836.
`Cl.NC[C@H](N)C(=O)O` was tested, and the relative growth was inactive: 0.967.
For `COc1ccc(S(=O)(=O)Nc2cccc3c2O[C@@H](CN(C)S(=O)(=O)c2ccc(F)cc2)[C@H](C)CN([C@@H](C)CO)C3=O)cc1`, the relative growth was inactive: 0.984.
For `C[C@H](CO)N1C[C@H](C)[C@@H](CN(C)CC2CCOCC2)Oc2ncc(C#Cc3ccc(F)cc3)cc2C1=O`, the relative growth was inactive: 0.974.
In the case of `COc1ccc(S(=O)(=O)N(C)C[C@H]2OCc3cn(nn3)CCCC(=O)N([C@H](C)CO)C[C@H]2C)cc1`, the relative growth is reported as inactive: 0.976.
With `Cc1ccc(S(=O)(=O)N(C)C[C@@H]2Oc3ccc(NS(=O)(=O)c4ccccc4)cc3C(=O)N([C@@H](C)CO)C[C@H]2C)cc1` the relative growth was inactive: 0.983.
With `COc1ccc(-c2cnc3c(c2)C(=O)N([C@H](C)CO)C[C@@H](C)[C@@H](CN(C)C(=O)Cc2ccccn2)O3)cc1` the relative growth was inactive: 1.01.
`CC(=O)OC1C(=O)C2(C)C(O)CC3OCC3(OC(C)=O)C2C(OC(=O)c2ccccc2)C2(O)CC(OC(=O)C(O)C(NC(=O)c3ccccc3)c3ccccc3)C(C)=C1C2(C)C` (centres undefined) was tested, and the relative growth was inactive: 1.05.
In the case of `Cc1cc(C)n2nc(N)nc2n1`, the relative growth is reported as inactive: 0.965.
For `C[C@@H]1CN([C@H](C)CO)C(=O)c2cc(NC(=O)Nc3cccc4ccccc34)ccc2O[C@@H](C)CCCCO[C@H]1CN(C)C(=O)Nc1ccc(C(F)(F)F)cc1`, the relative growth was inactive: 0.992.
With `CCN1CCC(N(C)S(=O)(=O)c2cn(C)c(=O)n(C)c2=O)CC1` the relative growth was inactive: 0.994.
In the case of `CSC[C@@H](O)Cn1[nH]c(=O)ccc1=O`, the relative growth is reported as inactive: 1.02.
For `COc1cccc(NC(=S)NN)c1`, the relative growth was inactive: 0.871.
For `C[C@H](CO)N1C[C@H](C)[C@@H](CN(C)Cc2ccc(C(=O)O)cc2)Oc2c(NC(=O)C3CCOCC3)cccc2C1=O`, the relative growth was inactive: 0.998.
With `Cc1ccc([C@@H](CN)c2c[nH]c3ccccc23)o1` the relative growth was inactive: 1.
With `C[C@H]1CN([C@@H](C)CO)C(=O)Cc2cc(NC(=O)C3CC3)ccc2O[C@@H]1CN(C)C(=O)Nc1ccc2c(c1)OCO2` the relative growth was inactive: 0.997.
With `CCCCCCCCCCCCCCCC[N+](C)(C)C` the relative growth was active: 0.0755.
With `C[C@@H]1CCCCO[C@@H](CN(C)CC2CCCCC2)[C@H](C)CN([C@H](C)CO)C(=O)c2cc(NC(=O)c3ccncc3)ccc2O1` the relative growth was inactive: 1.01.
In the case of `CC(C)NC(=O)[C@@H]1c2ccccc2C(=O)N(Cc2cc(C(F)(F)F)cc(C(F)(F)F)c2)[C@H]1c1ccc(CO)cc1`, the relative growth is reported as inactive: 0.954.
In the case of `Cc1ccc(S(=O)(=O)Nc2ccc3c(c2)CC(=O)N([C@H](C)CO)C[C@H](C)[C@@H](CN(C)C(=O)NC(C)C)O3)cc1`, the relative growth is reported as inactive: 1.01.
For `COc1ccccc1[C@@H](NC(=O)C1CCN(Cc2ccc(Oc3ccccc3)cc2)CC1)c1ccccn1`, the relative growth was inactive: 1.
In the case of `CC(=O)OC1CC2CC(OC(C)=O)C3(C)C(CCC4(C)C(c5ccoc5)OC(OC(C)=O)C5OC543)C2(C)C(OC(C)=O)C1` (centres undefined), the relative growth is reported as inactive: 1.09.
In the case of `C[C@@H]1CN([C@H](C)CO)C(=O)c2cc(NC(=O)Nc3ccc(F)cc3)ccc2O[C@@H](C)CCCCO[C@@H]1CN(C)C(=O)NC1CCCCC1`, the relative growth is reported as inactive: 1.01.
In the case of `C[C@@H]1CCCCO[C@H](CN(C)C(=O)c2ccccc2)[C@H](C)CN([C@@H](C)CO)C(=O)c2cc(NS(=O)(=O)c3ccc(Cl)cc3)ccc2O1`, the relative growth is reported as inactive: 1.
With `COc1ccc(NC(=O)Nc2ccc3c(c2)C(=O)N([C@@H](C)CO)C[C@H](C)[C@H](CN(C)Cc2ccncc2)OCCCC[C@H](C)O3)cc1` the relative growth was inactive: 0.997.
With `C[C@@H]1CN([C@@H](C)CO)C(=O)Cc2cc(NC(=O)CCN3CCOCC3)ccc2O[C@@H]1CN(C)S(=O)(=O)c1ccccc1` the relative growth was inactive: 1.01.
With `C[C@@H]1CN([C@H](C)CO)C(=O)c2cccc(NS(=O)(=O)c3cccs3)c2O[C@@H]1CN(C)CC1CC1` the relative growth was inactive: 1.
With `C[C@@H]1CCCCO[C@@H](CN(C)Cc2ccncc2)[C@@H](C)CN([C@@H](C)CO)C(=O)c2cc(NC(=O)CCC(F)(F)F)ccc2O1` the relative growth was inactive: 1.01.
In the case of `CN1C(=N)NC(=O)/C1=C/c1cccnc1`, the relative growth is reported as inactive: 1.01.
For `Clc1ccc2nncn2n1`, the relative growth was inactive: 1.02.
In the case of `CC(C)CC#Cc1cnc2c(c1)C(=O)N([C@@H](C)CO)C[C@H](C)[C@@H](CN(C)C(=O)CN1CCOCC1)O2`, the relative growth is reported as inactive: 0.975.
In the case of `NC(=O)C1(N2CCCCC2)CCN(CCCC(=O)c2ccc(F)cc2)CC1`, the relative growth is reported as inactive: 1.11.
`Cc1ccc(S(=O)(=O)N(C)C[C@@H]2OCCCC[C@@H](C)Oc3ccc(NC(=O)Nc4ccc5c(c4)OCO5)cc3C(=O)N([C@H](C)CO)C[C@H]2C)cc1` was tested, and the relative growth was inactive: 1.01.
With `COc1ccc(S(=O)(=O)Nc2ccc3c(c2)C(=O)N([C@H](C)CO)C[C@H](C)[C@@H](CN(C)Cc2ccc(Cl)c(Cl)c2)O3)cc1` the relative growth was inactive: 1.02.
`COc1c(O[C@@H]2O[C@H](CO)[C@@H](O)[C@H](O)[C@H]2O)cc2oc(-c3ccc(O)c(O)c3)c(O)c(=O)c2c1O` was tested, and the relative growth was inactive: 0.999.
`COc1ccc(S(=O)(=O)Nc2cccc3c2O[C@@H](CN(C)S(C)(=O)=O)[C@@H](C)CN([C@H](C)CO)C3=O)cc1` was tested, and the relative growth was inactive: 0.892.
For `COc1ccc(NC(=O)N(C)C[C@@H]2Oc3c(NC(=O)C4CCOCC4)cccc3C(=O)N([C@@H](C)CO)C[C@@H]2C)cc1`, the relative growth was inactive: 0.981.
With `O=C1CN(S(=O)(=O)Cc2ccccc2)C[C@@H]2[C@@H](c3ccc(C#Cc4cccc(F)c4)cc3)[C@H](CO)N12` the relative growth was inactive: 0.998.
With `COc1ccc(S(=O)(=O)N[C@H]2C=C[C@@H](CC(=O)N3CCC(Cc4ccccc4)CC3)O[C@@H]2CO)cc1` the relative growth was inactive: 1.
With `C[C@@H]1CCCCO[C@H](CN(C)C(=O)Nc2cccc3ccccc23)[C@@H](C)CN([C@H](C)CO)C(=O)c2cc(NC(=O)CCCCCC(=O)Nc3ccccc3N)ccc2O1` the relative growth was inactive: 1.01.
In the case of `CCc1nc2ccc(C(=O)Nc3cc(-c4ccccc4)ccc3OC)cn2c1N(C)C(=O)c1cccc(OC)c1`, the relative growth is reported as inactive: 1.04.
`C[C@@H]1CN([C@H](C)CO)C(=O)Cc2cc(NC(=O)C3CCCCC3)ccc2O[C@H]1CN(C)C(=O)Nc1ccc(C(F)(F)F)cc1` was tested, and the relative growth was inactive: 0.974.
With `C[C@@H]1CCCCO[C@@H](CN(C)C(=O)Nc2ccc3c(c2)OCO3)[C@@H](C)CN([C@H](C)CO)C(=O)c2cc(NS(=O)(=O)c3cccs3)ccc2O1` the relative growth was inactive: 0.99.
For `CCCCCN(C)CCC(O)(P(=O)([O-])O)P(=O)(O)O.O.[Na+]`, the relative growth was inactive: 0.941.
For `C[C@@H]1CN([C@@H](C)CO)C(=O)c2cc(NC(=O)Nc3ccc4c(c3)OCO4)ccc2O[C@@H](C)CCCCO[C@H]1CN(C)Cc1ccc(C(=O)O)cc1`, the relative growth was inactive: 0.997.
`C[C@H](CO)N1C[C@H](C)[C@H](CN(C)S(=O)(=O)c2cn(C)cn2)Oc2ccc(NC(=O)CCC(F)(F)F)cc2C1=O` was tested, and the relative growth was inactive: 0.997.
For `N=C(N)NCCN1CCCCCCC1`, the relative growth was inactive: 1.01.
`CCCNC(=O)N(C)C[C@H]1Oc2cc(-c3ccc(C)cc3)ccc2S(=O)(=O)N([C@H](C)CO)C[C@@H]1C` was tested, and the relative growth was inactive: 0.993.
`C[C@@H]1CN([C@@H](C)CO)C(=O)c2cc(NC(=O)Nc3ccccc3)ccc2O[C@@H]1CN(C)Cc1ccc(C(=O)Nc2ccccc2N)cc1` was tested, and the relative growth was inactive: 0.974.
With `Cl.Cl.NCCc1c[nH]cn1` the relative growth was inactive: 1.19.
With `CC(=O)Nc1c(C)[nH]c2ncnn2c1=O` the relative growth was inactive: 1.
For `Cc1cc(C(=O)Nc2cccc3c2O[C@H](CN(C)Cc2ccc(C(=O)O)cc2)[C@H](C)CN([C@H](C)CO)C3=O)n(C)n1`, the relative growth was inactive: 1.
For `Nc1nnc(C(=O)N2CCCCC2)[nH]1`, the relative growth was inactive: 0.981.
`COc1ccc(-c2nc(N3CCOCC3)c3sc(CN(C)c4ncc(C(=O)NO)cn4)cc3n2)cn1` was tested, and the relative growth was inactive: 0.784.
For `C[C@@H]1CN([C@H](C)CO)C(=O)c2cccc(NC(=O)Nc3ccc4c(c3)OCO4)c2O[C@H]1CN(C)S(C)(=O)=O`, the relative growth was inactive: 1.01.
With `Cc1noc(C)c1NC(=O)Nc1ccc2c(c1)CC(=O)N([C@@H](C)CO)C[C@H](C)[C@H](CN(C)S(=O)(=O)c1cn(C)cn1)O2` the relative growth was inactive: 1.01.
In the case of `O=C(C[C@@H]1C[C@H]2c3cc(NC(=O)Nc4ccc(C(F)(F)F)cc4)ccc3O[C@H]2[C@H](CO)O1)NCCc1ccccc1`, the relative growth is reported as inactive: 1.03.
With `C[C@H](CO)N1C[C@H](C)[C@@H](CN(C)S(=O)(=O)c2ccc(F)cc2)Oc2ncc(-c3ccncc3)cc2C1=O` the relative growth was inactive: 1.01.
With `C[C@@H]1CN([C@@H](C)CO)C(=O)Cc2cc(NC(=O)Cn3cnnn3)ccc2O[C@H]1CN(C)C(=O)Nc1ccc2c(c1)OCO2` the relative growth was inactive: 0.999.
With `C[C@@H]1CN([C@H](C)CO)S(=O)(=O)c2ccc(-c3cncnc3)cc2O[C@@H]1CN(C)C(=O)Cc1cccnc1` the relative growth was inactive: 0.987.
For `CC(C)NC(=O)Nc1ccc2c(c1)CC(=O)N([C@H](C)CO)C[C@@H](C)[C@H](CN(C)Cc1ccc(-c3ccccc3)cc1)O2`, the relative growth was inactive: 1.01.
